The list shows a part of the results. Interaction screen of human proteins with wild-type SARS-CoV-2 proteins by split-DHFR complementation in yeast, 1 µg/mL methotrexate. Value = fitness of the pair (three or more lineages) minus that of the viral protein without a human partner, on a scale set by negative (0) and fused positive (1) controls, mean of up to three cultures; higher = more likely to interact. Active = false discovery rate below 0.05 (one-sided t-test) in at least one culture. Nearly all pairs are not hits, and differences among them are mostly noise (correlation between cultures about 0.3); most hits were seen in one culture only. Human sequences are the Swiss-Prot entries looked up by gene name; the clone may be another isoform. NSP2 values were corrected by the authors for a growth advantage. Listed are human proteins with a hit and a random twelfth of the others.
B1: RASL10A, Q92737 (protein)
chain: MGGSLRVAVLGAPGVGKTAIIRQFLFGDYPERHRPTDGPRLYRPAVLLDGAVYDLSIRDGDVAGPGSSPGGPEEWPDAKDWSLQDTDAFVLVYDICSPDSFDYVKALRQRIAETRPAGAPEAPILVVGNKRDRQRLRFGPRRALAALVRRGWRCGYLECSAKYNWHVLRLFRELLRCALVRARPAHPALRLQGALHPARCSLM
B2: SLC31A2, O15432 (protein)
chain: MAMHFIFSDTAVLLFDFWSVHSPAGMALSVLVLLLLAVLYEGIKVGKAKLLNQVLVNLPTSISQQTIAETDGDSAGSDSFPVGRTHHRWYLCHFGQSLIHVIQVVIGYFIMLAVMSYNTWIFLGVVLGSAVGYYLAYPLLSTA
B3: TIMM23, O14925 (protein)
chain: MEGGGGSGNKTTGGLAGFFGAGGAGYSHADLAGVPLTGMNPLSPYLNVDPRYLVQDTDEFILPTGANKTRGRFELAFFTIGGCCMTGAAFGAMNGLRLGLKETQNMAWSKPRNVQILNMVTRQGALWANTLGSLALLYSAFGVIIEKTRGAEDDLNTVAAGTMTGMLYKCTGGLRGIARGGLTGLTLTSLYALYNNWEHMKGSLLQQSL
B4: RNF144A, P50876 (protein)
chain: MTTTRYRPTWDLALDPLVSCKLCLGEYPVEQMTTIAQCQCIFCTLCLKQYVELLIKEGLETAISCPDAACPKQGHLQENEIECMVAAEIMQRYKKLQFEREVLFDPCRTWCPASTCQAVCQLQDVGLQTPQPVQCKACRMEFCSTCKASWHPGQGCPETMPITFLPGETSAAFKMEEDDAPIKRCPKCKVYIERDEGCAQMMCKNCKHAFCWYCLESLDDDFLLIHYDKGPCRNKLGHSRASVIWHRTQVVGIFAGFGLLLLVASPFLLLATPFVLCCKCKCSKGDDDPLPT

Each binder was assayed against SARS-CoV-2 E (assay: yeast fitness gain over the viral ORF with no human partner (scaled fitness); higher = more likely to interact).
Description: (§1)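 Split mouse DHFR complementation in pooled diploid yeast: human ORFeome clones carry one fragment and viral ORFs the other; barcoded lineages compete in 1 µg/mL methotrexate and fitness is read by barcode sequencing in up to three cultures.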

Binder | yeast fitness gain
B1 | inactive: 0.0403
B2 | inactive: 0.00729
B3 | inactive: 0.0661
B4 | inactive: 0.103

Each binder was assayed against SARS-CoV-2 M in the same assay as above.
Description: as §1

Binder | yeast fitness gain
B1 | inactive: 0.00353
B2 | inactive: 0.0379
B3 | inactive: 0.00501
B4 | inactive: 0.0102

These binders were tested against SARS-CoV-2 N in the same assay as above.
Description: as §1

Binder | yeast fitness gain
B1 | inactive: 0.0867
B3 | inactive: -0.0452
B4 | inactive: 0.0194

What follows are binders tested against SARS-CoV-2 NSP1 in the same assay as above.
Description: as §1

Binder | yeast fitness gain
B1 | inactive: 0.0425
B2 | inactive: -0.188
B3 | inactive: -0.00658
B4 | inactive: -0.028

These binders were tested against SARS-CoV-2 NSP10 in the same assay as above.
Description: as §1

Binder | yeast fitness gain
B1 | inactive: 0.0203
B2 | inactive: -0.038
B3 | inactive: 0.0277
B4 | inactive: -0.0573

These binders were tested against SARS-CoV-2 NSP12 in the same assay as above.
Description: as §1

Binder | yeast fitness gain
B1 | inactive: 0.0176
B2 | inactive: -0.0209
B3 | inactive: -0.0617
B4 | inactive: -0.0866

The binders below were run against SARS-CoV-2 NSP13 in the same assay as above.
Description: as §1

Binder | yeast fitness gain
B1 | inactive: 0.0306
B2 | inactive: 0.0322
B3 | inactive: 0.0196
B4 | inactive: -0.0204

Each binder was assayed against SARS-CoV-2 NSP14 in the same assay as above.
Description: as §1

Binder | yeast fitness gain
B1 | inactive: -0.208
B3 | inactive: -0.133
B4 | inactive: -0.369

The binders below were run against SARS-CoV-2 NSP15 in the same assay as above.
Description: as §1

Binder | yeast fitness gain
B1 | inactive: 0.0939
B2 | inactive: 0.143
B3 | inactive: 0.0476
B4 | inactive: 0.11

These binders were tested against SARS-CoV-2 NSP16 in the same assay as above.
Description: as §1

Binder | yeast fitness gain
B1 | inactive: 0.0271
B2 | inactive: 0.0654
B3 | inactive: 0.0633
B4 | inactive: 0.0763

These binders were tested against SARS-CoV-2 NSP2 in the same assay as above.
Description: as §1

Binder | yeast fitness gain
B1 | inactive: -0.128
B2 | inactive: -0.0572
B3 | inactive: -0.0676
B4 | inactive: -0.244

These binders were tested against SARS-CoV-2 NSP4 in the same assay as above.
Description: as §1

Binder | yeast fitness gain
B1 | inactive: 0.0227
B2 | inactive: 0.114
B3 | inactive: -0.0458
B4 | inactive: -0.264

Each binder was assayed against SARS-CoV-2 NSP5 in the same assay as above.
Description: as §1

Binder | yeast fitness gain
B1 | inactive: 0.00534
B3 | inactive: -0.0159
B4 | inactive: -0.0279

Each binder was assayed against SARS-CoV-2 NSP6 in the same assay as above.
Description: as §1

Binder | yeast fitness gain
B1 | inactive: 0.0472
B2 | inactive: 0.026
B3 | inactive: 0.0177
B4 | inactive: 0.0507

What follows are binders tested against SARS-CoV-2 NSP7 in the same assay as above.
Description: as §1

Binder | yeast fitness gain
B1 | inactive: 0.0154
B2 | inactive: 0.0508
B3 | inactive: 0.00903
B4 | inactive: -0.00587

The binders below were run against SARS-CoV-2 NSP8 in the same assay as above.
Description: as §1

Binder | yeast fitness gain
B1 | inactive: -0.0207
B2 | inactive: -0.0196
B3 | inactive: -0.00244
B4 | inactive: -0.00801

Each binder was assayed against SARS-CoV-2 NSP9 in the same assay as above.
Description: as §1

Binder | yeast fitness gain
B1 | inactive: 0.027
B2 | inactive: -0.314
B3 | inactive: 0.0778
B4 | inactive: -0.0344

What follows are binders tested against SARS-CoV-2 ORF10 in the same assay as above.
Description: as §1

Binder | yeast fitness gain
B1 | inactive: -0.0158
B2 | inactive: 0.0197
B3 | inactive: 0.0115
B4 | inactive: 0.000783

What follows are binders tested against SARS-CoV-2 ORF3A in the same assay as above.
Description: as §1

Binder | yeast fitness gain
B1 | inactive: 0.0655
B2 | inactive: -0.0606
B3 | inactive: -0.0688
B4 | inactive: -0.0429

The binders below were run against SARS-CoV-2 ORF3B in the same assay as above.
Description: as §1

Binder | yeast fitness gain
B1 | inactive: 0.0147
B2 | inactive: 0.0436
B3 | inactive: 0.0469
B4 | inactive: -0.0233

These binders were tested against SARS-CoV-2 ORF6 in the same assay as above.
Description: as §1

Binder | yeast fitness gain
B1 | inactive: -0.00665
B2 | inactive: 0.0565
B3 | inactive: 0.0476
B4 | inactive: -0.00304

The binders below were run against SARS-CoV-2 ORF7A in the same assay as above.
Description: as §1

Binder | yeast fitness gain
B1 | inactive: 0.0546
B2 | inactive: 0.0207
B3 | inactive: 0.0085
B4 | inactive: 0.0166

These binders were tested against SARS-CoV-2 ORF7B in the same assay as above.
Description: as §1

Binder | yeast fitness gain
B1 | inactive: -0.0387
B2 | inactive: 0.124
B3 | inactive: 0.0345
B4 | inactive: -0.0191

Each binder was assayed against SARS-CoV-2 ORF8 in the same assay as above.
Description: as §1

Binder | yeast fitness gain
B1 | inactive: -0.0362
B2 | inactive: 0.0156
B3 | inactive: 0.00904
B4 | inactive: -0.0374

These binders were tested against SARS-CoV-2 ORF9B in the same assay as above.
Description: as §1

Binder | yeast fitness gain
B1 | inactive: -0.0225
B2 | inactive: -0.0407
B3 | inactive: 0.0158
B4 | inactive: 0.0308

The binders below were run against SARS-CoV-2 ORF9Bwu (the 73-codon ORF) in the same assay as above.
Description: as §1

Binder | yeast fitness gain
B1 | inactive: -0.0259
B2 | inactive: 0.015
B3 | inactive: 0.0886

Each binder was assayed against SARS-CoV-2 S in the same assay as above.
Description: as §1

Binder | yeast fitness gain
B1 | inactive: 0.0403
B2 | inactive: 0.0712
B3 | inactive: 0.0352
B4 | inactive: 0.0405
